{"source": "PubChem BioAssay AID1460", "about": "(National Center for Advancing Translational Sciences (NCATS), 2008)", "note": "Where “and” joins values, the source holds several entries; their conditions need not be identical. Identical values can stand only once. Screen size: about 270,000 compounds; about 5,800 (2.1%) were called active. Inconclusive means that the source gave no clear call. Such entries were picked first, then a sample of the others. The call rests on the fitted dose curve; in most records, active means well fitted inhibition curve with a large enough effect; inconclusive means small, poorly fitted or top-dose-only effect; inactive means flat fitted curve, though single readings scatter. Potencies beside an inconclusive call are fits to weak or partial responses and may not hold up. A structure can be active in one record and inactive in another. On the % scale 0 is the no-effect control and ±100 the full control effect; potency means the concentration at half of the fitted maximal effect; tags describe the fitted curve by direction and shape."}
{"target": "Microtubule-associated protein tau (Homo sapiens) (UniProt P10636)", "sequence (P10636 whole entry, looked up)": "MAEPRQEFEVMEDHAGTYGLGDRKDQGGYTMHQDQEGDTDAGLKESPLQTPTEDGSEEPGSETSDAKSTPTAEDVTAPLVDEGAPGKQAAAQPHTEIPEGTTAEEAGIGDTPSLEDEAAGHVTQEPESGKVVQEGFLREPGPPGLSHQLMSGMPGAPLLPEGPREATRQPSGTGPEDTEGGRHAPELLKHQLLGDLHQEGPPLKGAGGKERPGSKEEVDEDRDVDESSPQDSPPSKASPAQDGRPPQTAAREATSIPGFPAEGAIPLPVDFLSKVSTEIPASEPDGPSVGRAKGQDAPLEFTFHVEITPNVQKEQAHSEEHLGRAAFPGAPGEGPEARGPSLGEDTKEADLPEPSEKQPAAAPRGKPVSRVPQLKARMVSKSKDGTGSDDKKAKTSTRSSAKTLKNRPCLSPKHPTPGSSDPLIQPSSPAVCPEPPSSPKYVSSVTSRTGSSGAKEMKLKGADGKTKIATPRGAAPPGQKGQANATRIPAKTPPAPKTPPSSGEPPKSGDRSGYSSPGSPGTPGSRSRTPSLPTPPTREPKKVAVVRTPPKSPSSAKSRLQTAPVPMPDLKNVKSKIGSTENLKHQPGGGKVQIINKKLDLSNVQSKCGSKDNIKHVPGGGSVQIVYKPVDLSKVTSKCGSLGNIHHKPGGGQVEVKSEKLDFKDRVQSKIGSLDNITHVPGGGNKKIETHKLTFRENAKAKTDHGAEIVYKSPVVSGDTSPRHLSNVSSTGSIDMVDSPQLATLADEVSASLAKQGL", "assay": "qHTS for Inhibitors of Tau Fibril Formation, Thioflavin T Binding; further: nearly all actives have a fitted effect of over 55% in size", "conditions": "recombinant tau K18 P301L, heparin-induced fibrillization, ThT fluorescence; series mostly up to 57.4 µM; activity, negative = inhibition: at the top concentration", "procedure,_shortened": "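ThT emission at 510 nm, taken 1 hr after adding 30 uM dye, quantifies aggregates formed when 20 uM heparin acts on human tau K18 P301L for 6 hr at 37 C.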"}
{"smiles": "O=c1[nH]c(Cc2ccccn2)nc2scc(-c3ccccc3Cl)c12", "Potency": "inconclusive: 28.2 µM [inhibitor, single point]"}
{"smiles": "S=C(N=Nc1ccccc1)NNc1ccccc1", "Potency": "active: 25.1 µM"}
{"smiles": "NC(=O)c1sc2nc(-c3ccccc3)c3c(c2c1N)CCCC3", "Potency": "inconclusive: 44.7 µM [inhibitor, single point]"}
{"smiles": "COc1ccc(-c2cc3ccccc3c(=O)o2)cc1", "Potency": "inconclusive: 1.12 µM [inhibitor, full curve]"}
{"smiles": "CS(=O)(=O)N(CC(=O)Nc1ccc2c(c1)OCO2)Cc1ccccc1", "Potency": "inconclusive: 35.5 µM [inhibitor, partial curve, poor fit]"}
{"smiles": "Cc1ccc(CSc2ncnc3c2cnn3-c2ccccc2)cc1", "Potency": "inconclusive: 3.98 µM [inhibitor, full curve, poor fit]"}
{"smiles": "Cc1ccc(OCc2nc(-c3cccs3)no2)c([N+](=O)[O-])c1", "Potency": "inconclusive: 3.16 µM [inhibitor, partial curve, poor fit]"}
{"smiles": "CCN(CC)CCn1c2ccccc2c2nc3ccc([N+](=O)[O-])cc3cc21", "Potency": "inconclusive: 3.55 µM [inhibitor, partial curve]"}
{"smiles": "Cc1cccc(NCc2nc3ccccc3n2CCOc2ccccc2C)c1", "Potency": "inconclusive: 7.94 µM [inhibitor, full curve, poor fit]"}
{"smiles": "Cc1cccc(/N=C/c2c(O)[nH]c3ccccc23)n1", "Potency": "inconclusive: 14.1 µM [inhibitor, partial curve]"}
{"smiles": "CCCC(=O)NC(=S)Nc1sc2c(c1C(N)=O)CCC2", "Potency": "inconclusive: 15.8 µM [inhibitor, partial curve]"}
{"smiles": "CCC1c2ccc(C)n2CCN1C(=O)Nc1ccccc1OC", "note": "(stereo not given)", "Potency": "inconclusive: 25.1 µM [inhibitor, single point]"}
{"smiles": "CC(C)OC(=O)CSc1nc(Cc2cccs2)nc2ccccc12", "Potency": "inconclusive: 15.8 µM [inhibitor, partial curve, poor fit]"}
{"smiles": "CCOC(=O)c1c(NC(C)=O)sc2c(O)c(Br)cc(Br)c12", "Potency": "inconclusive: 14.1 µM [inhibitor, partial curve]"}
{"smiles": "COc1cc(NC(=O)CN2C(=O)NC(C)(c3ccccc3)C2=O)c(C)cc1[N+](=O)[O-]", "note": "(stereo not given)", "Potency": "inconclusive: 20 µM [inhibitor, single point]"}
{"smiles": "CC(=O)c1cccc(Nc2ccc3cc(S(=O)(=O)N4CCC(C)CC4)ccc3n2)c1", "Potency": "inconclusive: 3.98 µM [activator, partial curve]"}
{"smiles": "Cc1ccc(Nc2nc(N)nc(CN3CCN(C(=O)c4ccco4)CC3)n2)cc1Cl", "Potency": "inconclusive: 20 µM [inhibitor, partial curve]"}
{"smiles": "CCC(Cn1nnc2ccccc2c1=O)NC(=O)Nc1ccc(C)cc1C", "note": "(stereo not given)", "activity, negative = inhibition": "inactive: 1.2%"}
{"smiles": "CCC(=O)Nc1cccc(C2=NOC3(C2)C[C@@H](C(N)=O)N(C(=O)c2cc([N+](=O)[O-])cc([N+](=O)[O-])c2)C3)c1", "note": "(stereo not given in full)", "activity, negative = inhibition": "inactive: 6.59%"}
{"smiles": "CC/C=C\\C/C=C\\C/C=C\\C/C=C\\C/C=C\\C/C=C\\CCC(=O)O", "Potency": "inactive and active: 15.8 µM"}
{"smiles": "COc1ccccc1CN(C(=O)c1ccco1)C(C(=O)NC1CCCC1)c1ccncc1", "note": "(stereo not given)", "Potency": "inconclusive: 39.8 µM [inhibitor, partial curve]"}
{"smiles": "COc1ccc(SCCc2ccncc2)cc1", "activity, negative = inhibition": "inactive: 9.44%"}
{"smiles": "CCc1ccc(C2Sc3ccccc3NC3=C2C(=O)c2ccccc23)cc1", "note": "(stereo not given)", "Potency": "inconclusive: 5.62 µM [inhibitor, partial curve]"}
{"smiles": "COc1ccc(NC(=O)c2sc3nc4c(cc3c2N)CN(Cc2ccccc2)CC4)cc1", "Potency": "inconclusive: 22.4 µM [inhibitor, partial curve, poor fit]"}
{"smiles": "COCCN=C1NN=C(c2ccc(NC(C)=O)cc2)CS1", "Potency": "active: 28.2 µM"}
{"smiles": "COc1ccccc1OCC(=O)Nc1nc2c(s1)CC(C)CC2", "note": "(stereo not given)", "Potency": "inconclusive: 14.1 µM [inhibitor, partial curve, poor fit]"}
{"smiles": "COc1ccc(CCNC(=O)/C=C\\c2ccccc2)cc1OC", "Potency": "inconclusive: 12.6 µM [inhibitor, partial curve]"}
{"smiles": "Cc1cccc(-c2nc(CSc3nncn4c3cc3oc(C)cc34)c(C)o2)c1", "Potency": "inconclusive: 10 µM [inhibitor, partial curve]"}
{"smiles": "CCCOc1ccc(C(=O)CCNc2ccc(C)c(Cl)c2)cc1", "activity, negative = inhibition": "inactive: -21.3%"}
{"smiles": "CCc1ccc2c(c1)cc(CN(C(=S)Nc1ccccc1)C1CC1)c1nnnn12", "activity, negative = inhibition": "inactive: -4.38%"}
{"smiles": "CCN=C1S/C(=C\\c2cn(CC)c3ccccc23)C(=O)N1CC", "Potency": "inconclusive: 17.8 µM [inhibitor, partial curve]"}
{"smiles": "COc1ccc(C2(CNC(=O)C(=O)Nc3cccc(C(F)(F)F)c3)CCCC2)cc1OC", "Potency": "inconclusive: 25.1 µM [inhibitor, single point]"}
{"smiles": "OCCN1CCN(C(=S)c2ccc(Cl)c(Cl)c2)CC1", "Potency": "active: 7.94 µM"}
{"smiles": "CCOC(=O)C(C)Sc1nnc2ccc3ccccc3n12", "note": "(stereo not given)", "activity, negative = inhibition": "inactive: 3.21%"}
{"smiles": "O=C(CN1C(=O)c2ccc([N+](=O)[O-])cc2C1=O)Nc1nccs1", "activity, negative = inhibition": "inactive: -8.27%"}
{"smiles": "Cc1cccc(NC(=O)C2CCCN(S(=O)(=O)c3cccc4nonc34)C2)c1", "note": "(stereo not given)", "Potency": "inactive"}
{"smiles": "CCOC(=O)CSc1nc(-c2ccncc2)ccc1C#N", "Potency": "inconclusive: 15.8 µM [inhibitor, partial curve]"}
{"smiles": "CC(C)(C)c1ccc(/C=N/NC(=O)c2ccccn2)cc1", "activity, negative = inhibition": "inactive: -14.5%"}
{"smiles": "Cc1ccc(C2c3[nH]c4ccccc4c3CCN2C(=O)Nc2ccc(C)c(C)c2)cc1", "note": "(stereo not given)", "activity, negative = inhibition": "inactive: 0.0894%"}
{"smiles": "CN(C1=C(N2CCCCC2)C(=O)c2ccccc2C1=O)c1ccccc1", "Potency": "inconclusive: 25.1 µM [inhibitor, partial curve]"}
{"smiles": "CC(C)CNC(=O)C(=O)NCc1ccccc1", "Potency": "inconclusive: 7.94 µM [activator, single point]"}
{"smiles": "CCOc1ccc(Oc2ccc(-c3nnc(-c4ccccc4)o3)cc2[N+](=O)[O-])cc1", "Potency": "inconclusive: 20 µM [inhibitor, partial curve]"}
{"smiles": "Cc1ccc(/C=N/Nc2cccc3cccnc23)c(O)c1", "activity, negative = inhibition": "inactive: -8.57%"}
{"smiles": "Cc1ccccc1OCCCCn1cnc2ccccc21", "Potency": "inconclusive: 22.4 µM [inhibitor, partial curve]"}
{"smiles": "Nc1ccccc1Nc1cc(-c2ccccc2)nn1-c1ccccc1", "Potency": "inconclusive: 14.1 µM [inhibitor, partial curve]"}
